In the supplement of paper PMC3334620:
Over roughly 33,000 sequences, “E-score (-0.5 to 0.5)” has its median near -0.017; the highest 2% begin near 0.3. The list shows a part of the results.

These sequences were tested against T1, Sut1 (UniProt P53032) (assay: PBM E-score (8-mer binding enrichment) (E-score (-0.5 to 0.5)); higher = stronger / more preferred TF binding; most listed sequences are background and not binding sites). Conditions: protein concentration: 200 nM; construct: GST-full length.
T1 sequence: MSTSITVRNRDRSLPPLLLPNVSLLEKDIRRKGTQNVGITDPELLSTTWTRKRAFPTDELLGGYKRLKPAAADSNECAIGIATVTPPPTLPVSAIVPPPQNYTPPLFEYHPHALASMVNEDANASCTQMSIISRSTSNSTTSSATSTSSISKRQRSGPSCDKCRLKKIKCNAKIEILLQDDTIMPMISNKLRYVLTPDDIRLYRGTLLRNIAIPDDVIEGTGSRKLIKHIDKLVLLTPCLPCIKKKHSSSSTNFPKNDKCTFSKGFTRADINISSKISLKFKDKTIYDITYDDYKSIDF
Method: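 Universal 'all 10-mer' protein binding microarrays (Agilent AMADID 015681) probed with GST-tagged S. cerevisiae TFs (full-length or DBD) made by in vitro transcription/translation (PURExpress), about 100-200 nM. Bound TF was detected with fluorescent anti-GST. Each ungapped 8-mer (which stands for itself and its reverse complement) is scored by the PBM enrichment score (E-score), a modified Wilcoxon-Mann-Whitney statistic from -0.5 to +0.5, computed with the Universal PBM Analysis Suite. Scale: above 0.35 generally sequence-specific binding.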

Question: Which “PBM E-score” value does the source give for CGATGAAC here?
Answer: 0.0671

Question: How did the “PBM E-score” value turn out when ACAAGTGG was run?
Answer: -0.112

Question: How did the “PBM E-score” value turn out when AGGCGGTC was run?
Answer: -0.257

Question: How did the “PBM E-score” value turn out when CCTCGCGA was run?
Answer: -0.256

Question: GGACAAGA was tested. Which “PBM E-score” value did it give?
Answer: -0.143

Question: Which “PBM E-score” value does the source give for ATATTCAA here?
Answer: 0.246

Question: Which “PBM E-score” value does the source give for ACCGGATC here?
Answer: 0.0878

Question: How did the “PBM E-score” value turn out when GTCCCCCA was run?
Answer: -0.245

Question: Which “PBM E-score” value does the source give for CCTAAGAA here?
Answer: -0.0499

Question: Which “PBM E-score” value does the source give for GCAATGCC here?
Answer: 0.00926

Question: How did the “PBM E-score” value turn out when CCACGTAA was run?
Answer: -0.0674

Question: Which “PBM E-score” value does the source give for GCCGAAAC here?
Answer: 0.105

Question: For AATTAGAT, which “PBM E-score” value is on record?
Answer: 0.271

Question: How did the “PBM E-score” value turn out when GCATCGCA was run?
Answer: -0.183

Question: For AACGATAC, which “PBM E-score” value is on record?
Answer: -0.0812

Question: GATAGTCC was tested. Which “PBM E-score” value did it give?
Answer: 0.193

Question: CCACTCCG was tested. Which “PBM E-score” value did it give?
Answer: 0.444

Question: Which “PBM E-score” value does the source give for AAGCTACG here?
Answer: -0.221

Question: How did the “PBM E-score” value turn out when CTTAGTCA was run?
Answer: -0.0284

Question: With AAGGTTGG as the sequence, how does the “PBM E-score” value read?
Answer: 0.0687

Question: Which “PBM E-score” value does the source give for GATTGAGA here?
Answer: 0.116

Question: For GTATTGGA, which “PBM E-score” value is on record?
Answer: 0.0245

Question: Which “PBM E-score” value does the source give for CAGTAATC here?
Answer: -0.105

Question: How did the “PBM E-score” value turn out when AGACAAAG was run?
Answer: -0.0899

Question: With AACTTTAT as the sequence, how does the “PBM E-score” value read?
Answer: 0.119

Question: How did the “PBM E-score” value turn out when GCCATGTA was run?
Answer: -0.0686

Question: How did the “PBM E-score” value turn out when TAATAACA was run?
Answer: 0.163

Question: Which “PBM E-score” value does the source give for ACGATCCA here?
Answer: 0.0515

Question: Which “PBM E-score” value does the source give for GGCTAAAA here?
Answer: -0.00644

Question: For CCTCTAAC, which “PBM E-score” value is on record?
Answer: -0.0627

Question: With ACTGACAT as the sequence, how does the “PBM E-score” value read?
Answer: -0.096

Question: ATAGATCC was tested. Which “PBM E-score” value did it give?
Answer: -0.0213

Question: For AGACGAGA, which “PBM E-score” value is on record?
Answer: -0.196

Question: Which “PBM E-score” value does the source give for CGAATGAG here?
Answer: 0.118

Question: Which “PBM E-score” value does the source give for ATTTTACG here?
Answer: 0.197

Question: With GGGACGTA as the sequence, how does the “PBM E-score” value read?
Answer: -0.12

Question: How did the “PBM E-score” value turn out when AAAAGTGT was run?
Answer: -0.0801

Question: How did the “PBM E-score” value turn out when CTTGGGCA was run?
Answer: -0.0304

Question: How did the “PBM E-score” value turn out when GCTCCCCA was run?
Answer: -0.408

Question: With ATAGATTC as the sequence, how does the “PBM E-score” value read?
Answer: 0.225

Question: ATACGTAT was tested. Which “PBM E-score” value did it give?
Answer: 0.203

Question: AACGATTA was tested. Which “PBM E-score” value did it give?
Answer: 0.131

Question: ATCGGCGA was tested. Which “PBM E-score” value did it give?
Answer: -0.0797

Question: With ATGGCACG as the sequence, how does the “PBM E-score” value read?
Answer: -0.237

Question: Which “PBM E-score” value does the source give for CAACATGG here?
Answer: -0.135

Question: Which “PBM E-score” value does the source give for ACCCTGCA here?
Answer: -0.126

Question: With CTGTAGCC as the sequence, how does the “PBM E-score” value read?
Answer: -0.238

Question: Which “PBM E-score” value does the source give for TGTAGCAA here?
Answer: 0.0562

Question: How did the “PBM E-score” value turn out when GCTCACCA was run?
Answer: -0.217

Question: ATTATGTC was tested. Which “PBM E-score” value did it give?
Answer: 0.0943

Question: Which “PBM E-score” value does the source give for AAGCTTCC here?
Answer: -0.156

Question: GGGCAGGA was tested. Which “PBM E-score” value did it give?
Answer: -0.247

Question: Which “PBM E-score” value does the source give for AATTACCA here?
Answer: 0.242

Question: GAATCGAC was tested. Which “PBM E-score” value did it give?
Answer: -0.0287

Question: Which “PBM E-score” value does the source give for CTAACCTA here?
Answer: 0.0178

Question: How did the “PBM E-score” value turn out when GAGACTGA was run?
Answer: 0.14

Question: GCCCATAA was tested. Which “PBM E-score” value did it give?
Answer: -0.0955

Question: With CGCTTACA as the sequence, how does the “PBM E-score” value read?
Answer: -0.0348

Question: How did the “PBM E-score” value turn out when AGAATACC was run?
Answer: 0.132

Question: Which “PBM E-score” value does the source give for AGTACCGG here?
Answer: 0.178

Question: Which “PBM E-score” value does the source give for CTAAGTAG here?
Answer: 0.0529

Question: GAGGTCGC was tested. Which “PBM E-score” value did it give?
Answer: -0.189

Question: CGAGACTC was tested. Which “PBM E-score” value did it give?
Answer: -0.163

Question: With GACCGGGC as the sequence, how does the “PBM E-score” value read?
Answer: -0.0226

Question: TAGTTTAA was tested. Which “PBM E-score” value did it give?
Answer: 0.211

Question: How did the “PBM E-score” value turn out when AACTCATT was run?
Answer: 0.0142

Question: With AGTGGCCA as the sequence, how does the “PBM E-score” value read?
Answer: -0.202

Question: With CATGCATG as the sequence, how does the “PBM E-score” value read?
Answer: -0.0882

Question: How did the “PBM E-score” value turn out when ACCGCCGT was run?
Answer: -0.0174

Question: For TAACCCTA, which “PBM E-score” value is on record?
Answer: -0.115

Question: With GCGTAGCA as the sequence, how does the “PBM E-score” value read?
Answer: -0.141

Question: How did the “PBM E-score” value turn out when CCCGCCAG was run?
Answer: -0.224

Question: Which “PBM E-score” value does the source give for CTACGACA here?
Answer: -0.0304

Question: Which “PBM E-score” value does the source give for ACCCAGAG here?
Answer: 0.0429

Question: CGTTAGGC was tested. Which “PBM E-score” value did it give?
Answer: -0.162

Question: Which “PBM E-score” value does the source give for CAAAAAGA here?
Answer: 0.159

Question: AACCTACT was tested. Which “PBM E-score” value did it give?
Answer: 0.0218

Question: How did the “PBM E-score” value turn out when CTCGGAGC was run?
Answer: 0.389

Question: With ACCCCACA as the sequence, how does the “PBM E-score” value read?
Answer: -0.111

Question: Which “PBM E-score” value does the source give for AAGGGTGC here?
Answer: -0.225

Question: TAGTCTCA was tested. Which “PBM E-score” value did it give?
Answer: -0.0247

Question: How did the “PBM E-score” value turn out when CATTTCCG was run?
Answer: 0.293

Question: GTCACTAA was tested. Which “PBM E-score” value did it give?
Answer: 0.0329

Question: For ATTACCGC, which “PBM E-score” value is on record?
Answer: 0.107

Question: With TCAAGGGA as the sequence, how does the “PBM E-score” value read?
Answer: -0.123

Question: For GCTTCCCC, which “PBM E-score” value is on record?
Answer: -0.339

Question: ATCAACCC was tested. Which “PBM E-score” value did it give?
Answer: 0.0629

Question: AGGCGCGA was tested. Which “PBM E-score” value did it give?
Answer: -0.0511

Question: Which “PBM E-score” value does the source give for AGCTCCAA here?
Answer: 0.0776

Question: For GGCCTCGA, which “PBM E-score” value is on record?
Answer: -0.17

Question: For CCTGGCAA, which “PBM E-score” value is on record?
Answer: -0.195

Question: For CACCGACC, which “PBM E-score” value is on record?
Answer: -0.226

Question: How did the “PBM E-score” value turn out when ACTGCGAT was run?
Answer: -0.0293

Question: How did the “PBM E-score” value turn out when AGACCGCA was run?
Answer: -0.0648
